Among all 310,000 compounds or so, about 17,000 (5.5%) were called active. Not shown: some 11% with an inconclusive outcome. The call rests on the fitted dose curve; in most records, active means well fitted inhibition curve with a large enough effect; inconclusive means small, poorly fitted or top-dose-only effect, or effect the other way; inactive means no such curve, though single readings can be large or run the other way. The entries are a selection whose mix differs from that of the whole data set. Where a structure was tested more than once in an assay, its records may differ in their call.
On the % scale 0 is the no-effect control and ±100 the full control effect; potency means the concentration at half of the fitted maximal effect.

The target in this experiment is Nuclear receptor ROR-gamma (Mus musculus) (UniProt P51450). Description: qHTS for inhibitors of ROR gamma transcriptional activity. Further: nearly all actives have a fitted effect of over 60% in size. As to conditions: Drosophila S2 Gal4-RORgamma UAS-luciferase reporter, 20 h; series mostly up to 53.6 µM; activity change, negative = inhibition: at the top concentration. An excerpt: NIH Molecular Libraries Probe Production Network [MLPCN] NIH Chemical Genomics Center [NCGC] MLPCN Grant: R03 DA026211-01 Assay Provider: Dan Littman, New York University Assay Overview: The retinoic acid-related orphan receptor (ROR) gamma is a transcription factor that has a central role in the differentiation of Th17 cells, a subset of T helper cells that secrete the inflammatory cytokines IL-17, IL-17F, and IL-22. Th17 cells have been implicated in graft versus host disease, autoimmune disease and asthma. ROR gamma is induced in naive T helper cells in the presence of TGF-beta combined with IL-6, IL-21, or IL-23, and thereafter directs the expression of the Th17 lineage cytokines. To study the mechanism of action of ROR gamma, an insect cell-based assay was screened. This Drosophila Schneider cell line was stably transfected with two vectors: a gene expressing a fusion of the Gal4 DNA binding domain and ROR gamma transactivation domain under the control of the metallothionine promoter and a Photinus luciferase reporter regulated by the Gal4 binding site enhancer, UAS. […] Small molecule inhibitors of ROR gamma activity are detected by a decrease in luciferase reporter activity.
Sequence of UniProt P51450 (P51450 whole entry, looked up, the tested form may be a part): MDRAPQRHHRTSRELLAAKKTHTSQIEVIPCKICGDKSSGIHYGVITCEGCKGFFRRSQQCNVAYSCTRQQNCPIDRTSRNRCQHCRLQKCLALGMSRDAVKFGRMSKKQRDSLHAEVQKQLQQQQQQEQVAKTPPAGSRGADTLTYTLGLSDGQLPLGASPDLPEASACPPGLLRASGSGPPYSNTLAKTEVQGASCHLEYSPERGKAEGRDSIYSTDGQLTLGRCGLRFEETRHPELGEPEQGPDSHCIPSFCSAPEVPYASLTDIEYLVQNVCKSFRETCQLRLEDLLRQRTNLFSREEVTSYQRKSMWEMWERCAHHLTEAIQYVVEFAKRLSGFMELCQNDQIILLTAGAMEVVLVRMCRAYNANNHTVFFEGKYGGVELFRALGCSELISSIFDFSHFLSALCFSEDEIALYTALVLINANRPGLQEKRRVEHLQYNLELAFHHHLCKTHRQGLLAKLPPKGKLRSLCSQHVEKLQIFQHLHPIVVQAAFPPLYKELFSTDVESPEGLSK
Assay Protocol Summary: For screening, 600 cells in 4 uL/well were dispensed into white solid 1536-well plates (Grenier) using a solenoid-based dispenser. Following transfer of 23 nL compound or DMSO vehicle by a pin tool, the plates were incubated 1 hr at ambient temperature, and 1 uL/well copper sulfate (700 uM final concentration) was added. The plates were centrifuged 15 s at 1000 RPM and incubated 20 hr at ambient temperature. After addition of 1.5 uL Photinus luciferase detection reagent, the plates were incubated 10 min at ambient temperature and then read by an ViewLux (Perkin Elmer) to detect luminescence. Keywords: NIH Roadmap, MLPCN, MLI, MLSMR, qHTS, NCGC, qHTS, nuclear hormone receptor, retinoic acid-related orphan receptor, ROR gamma
(qHTS replaces the single test concentration by a dilution series.)
As to `Cc1ccc(S(=O)(=O)CCC(=O)c2ccc(F)cc2)cc1`, the Potency is active: 3.98 µM.
As to `CC(C)C1=CC2=CC[C@H]3[C@](C)(C(=O)O)CCC[C@]3(C)C2CC1` (stereo not given in full), the “activity change, negative = inhibition” value is inactive: 12%.
Same read-out and setting: for `C[C@@H]1O[C@@H](O[C@H]2[C@H](Oc3cc(O)c4c(c3)O[C@H](c3ccc(O)cc3)CC4=O)O[C@H](CO)[C@@H](O)[C@@H]2O)[C@H](O)[C@H](O)[C@H]1O` the value was inactive: 15.7%; for `CC1=CC(=O)c2ccccc2C1=O`, inactive: 7.62%.
On the same count and under the same terms, the result for `COC(=O)[C@@]1(Cc2ccc(F)cc2)[C@H]2c3cc(C(=O)N(C)C)n(Cc4ccccn4)c3C[C@H]2CN1C(=O)c1ccccc1` reads inactive: -0.912%.
With `O=C(Nc1ccccc1C(=O)N/N=C/c1ccco1)c1ccc(F)cc1`, the Potency is active: 1.12 µM.
For the compound `O=C(/C=C/c1ccc(Cl)cc1Cl)NC(=S)Nc1ccc(CN2CCOCC2)cc1`, the Potency is active: 3.55 µM.
Still for that read-out and setting: for `Cc1ccc([N+](=O)[O-])cc1N=Nc1c(C)[nH]n(C(N)=S)c1=O` the value was active: 7.08 µM.
As for `CCNC(=S)N/N=C/c1cccs1`, the Potency is active: 0.794 µM.
The same measure, in the same setting: for `C[C@@H](C(=O)O)[C@@H]1C[C@@]1(C)[C@@H](NC(=O)OCc1ccccc1)c1ccccc1` the value was “inactive”.
For the compound `C[C@H]1CC[C@@]2(O[C@@H](CCO)C[C@@H](O)[C@@H]2O)O1`, the “activity change, negative = inhibition” value is inactive: 6.43%.
Regarding `CC1CCC2C(=O)N(c3ccc(C(=O)Oc4cccc5cccnc45)cc3)C(=O)C2C1` (stereo not given), the Potency is active: 6.31 µM.
Turning to `OCCN1CCN(CC/C=C2\c3ccccc3Sc3ccc(C(F)(F)F)cc32)CC1`, the “activity change, negative = inhibition” value is inactive: 0.427% [at 16.9 µM].
Turning to `CCOC(=O)c1cnc2ccccc2c1NCc1ccco1`, the Potency is active: 6.31 µM.
Regarding `Cc1ccccc1NC(=S)NCCC(c1ccccc1)c1ccccc1`, the Potency was active: 5.01 µM.
Regarding `COC(=O)C1=C(C)N(Cc2ccco2)C(=O)N[C@H]1c1cccc(C(F)(F)F)c1`, the “activity change, negative = inhibition” value is inactive: -36.2%.
Still for that read-out and setting: the result for `CCCC[C@@H]1C[C@H]1[C@@H](NC(=O)c1ccccc1)c1ccccc1C(F)(F)F` reads inactive: 11.5%; that for `CCOc1ccc(N=C(/C(C(=O)C(=O)N2CCOCC2)=C(\O)c2ccccc2)c2ccccc2)cc1`, inactive: -88.9%; that for `CC12CCC(CC1=O)C2(C)C` (stereo not given), inactive: 8.81%.
Take `C[C@@H](C(=O)NCc1ccccc1)[C@H]1C[C@]1(C)[C@H](NC(=O)OCc1ccccc1)c1ccccc1`: the Potency entry is “inactive”.
For `C[C@@]12CCC=C[C@H]1[C@H](c1ccc3ccccc3c1)N(Cc1ccccc1)C2=O`, the “activity change, negative = inhibition” value is inactive: -3.51%.
Still for that read-out and setting: for `CC1(C)OC(C(O)(c2ccccc2)c2ccccc2)C(C(O)(c2ccccc2)c2ccccc2)O1` (stereo not given) the value was inactive: 7.79% [at 10 µM]; for `CCOC(=O)Cc1csc(NC(=O)/C=C\c2ccccc2Cl)n1`, inactive: -42.7%; for `COc1cc([C@H]2c3cc4c(cc3[C@@H](O[C@H]3O[C@H]5CO[C@@H](C)O[C@H]5[C@@H](O)[C@@H]3O)[C@@H]3COC(=O)[C@H]23)OCO4)cc(OC)c1O`, inactive: -32.5% [at 16.9 µM].
As to `CCO[C@@H]1OC(C(=O)Nc2ccccc2)=C[C@H](c2csc3ccccc23)[C@H]1CCCO`, the “activity change, negative = inhibition” value is inactive: -24.2%.
On to `C1COC(NC(C2CC2)C2CC2)=N1`, for which the Potency entry is “inactive”.
The same measure, in the same setting: for `COc1ccc(CSCC(=O)N/N=C/c2ccccc2O)cc1` the value was active: 0.708 µM.
The same measure, in the same setting: the result for `COc1ccc2c(c1)c(CC(=O)O)c(C)n2C(=O)c1ccc(Cl)cc1` reads “inactive”.
On to `CCc1cc2c(nc1CC)CCN(CC/C(C)=N/OC[C@H]1O[C@H](c3ccccc3)C=C[C@@H]1Oc1ccc(OC)cc1)C2`, for which the activity change, negative = inhibition is inactive: -2.48% [at 10 µM].
`NNc1nc2cccnc2n(CCNc2ncc(C(F)(F)F)cc2Cl)c1=O`: the Potency was active: 10 µM.
With `C/C=C(/C)C(=O)OC1Cc2c(ccc3ccc(=O)oc23)OC1(C)C` (stereo not given), the “activity change, negative = inhibition” value is inactive: -2.32%.
Turning to `CC(=O)OCCCNc1cc(Sc2nc3ccccc3s2)c2nonc2c1[N+](=O)[O-]`, the Potency was active: 3.55 µM.
The same measure, in the same setting: the result for `COc1ccc(OC)c(-n2c(-c3cc(-c4ccccc4)n[nH]3)n[nH]c2=S)c1` reads active: 7.94 µM.
On to `CCCCC[C@H](O)/C=C/C1=C(CCCCCCC(=O)O)C(=O)CC1`, for which the “activity change, negative = inhibition” value was inactive: -36.8%.
The same measure, in the same setting: for `COC1=C2C[C@H](C)C[C@H](OC)[C@H](O)[C@@H](C)/C=C(/C)[C@H](OC(N)=O)[C@@H](OC)/C=C\C=C(\C)C(=O)NC(=CC1=O)C2=O` the value was inactive: 10.9%.
With `CCOC(=O)C(Sc1nnc(-c2ccncc2)o1)C(C)=O` (stereo not given), the Potency is active: 5.01 µM.
On to `COc1ccc2c(c1)Cc1sc(NC(=O)c3cccs3)nc1-2`, for which the Potency is active: 7.94 µM.
`CC1(COc2ccc(C[C@H]3SC(=O)NC3=O)cc2)CCCCC1`: the “activity change, negative = inhibition” value was inactive: 3.78%.
Regarding `Nc1nc(Cl)nc2c1ncn2[C@H]1C[C@H](O)[C@@H](CO)O1`, the Potency result is “inactive”.
As for `COC(=O)[C@@]1(Cc2ccc(OC)cc2)[C@H]2c3cc(C(=O)N4CCCC4)n(CCSCCO)c3C[C@H]2CN1C(=O)c1ccccc1`, the “activity change, negative = inhibition” value is inactive: 19.5%.
In the case of `CCN1C/C(=C\c2cccc([N+](=O)[O-])c2)C(=O)/C(=C/c2cccc([N+](=O)[O-])c2)C1`, the “activity change, negative = inhibition” value is inactive: 29.5%.
On the same count and under the same terms, for `NNC(=O)[C@H]1C[C@@H]1c1ccccc1` the value was inactive: -6.74% [at 10 µM].
In the case of `Fc1ccccc1NC(=S)N/N=C/c1ccccc1Br`, the Potency was active: 3.16 µM.
Consider `O=C(CCCN1C(=O)/C(=C\c2cccs2)SC1=S)Nc1ccc(C(=O)O)cc1`, for which the “activity change, negative = inhibition” value is inactive: 8.29%.
For the compound `COC(=O)[C@H](C)[C@@H]1C[C@@]1(C)[C@@H](NC(=O)OCc1ccccc1)c1ccccc1`, the “activity change, negative = inhibition” value was inactive: 12.6%.

(Values after PubChem BioAssay AID2551 (National Center for Advancing Translational Sciences (NCATS), 2010).)
